Source: PubChem BioAssay AID1963576 (National Center for Advancing Translational Sciences (NCATS), 2024)
About 60 (0.1%) of roughly 46,000 compounds were called active. About 3% were inconclusive and are not listed. Calls follow the shape of the dose curve; as a rule, active = well fitted inhibition curve with a large enough effect; inconclusive = small, poorly fitted or top-dose-only effect; inactive = no such curve, though single readings can be large or run the other way. The list shows a part of the results.

Assay: Primary qHTS assay for Inhibitors of ovarian cancer metastasis using an organotypic tumor microenvironment (TME) model. Also: nearly all actives have a fitted effect of over 65% in size.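 As to activity change, negative = inhibition: plate controls were DMSO wells for no effect and tomatine positive control wells for full effect.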
Conditions: SKOV3ip1-GFP adhesion/invasion on 3D omental model, fluorescence; series mostly up to 45.8 µM; activity change, negative = inhibition: at the top concentration
In short: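 qHTS, 4-pt dose (0.36-46 umol/L); SKOV3ip1-GFP, 1,200 cells/well, no FBS; primary omental fibroblast/mesothelial co-culture 48 h pre-grown; 2 h RT + 16 h 37 C; PBS wash, 4% PFA; GFP count 488/509 nm.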

Row | Structure (SMILES) | activity change, negative = inhibition | outcome
1 | COc1ccc(Nc2nc3ccccc3c3nnc(C)n23)cc1Cl | inactive: -5.51% | 
2 | CCN(C(=O)CCn1cnc2onc(-c3ccc(F)cc3)c2c1=O)c1ccc(OC)cc1 | inactive: 3.5% | 
3 | Cn1nnc2c(NCCc3ccccc3)ncnc21 | inactive: 22.6% | 
4 | Cc1ccc(-c2noc(CSc3nnc(Cc4ccccc4)n3-c3cccc(C)c3)n2)cc1 |  | inactive
5 | O=C(NCC(c1cccnc1)N1CCc2ccccc2C1)C(=O)Nc1ccc(Cl)cc1 (centres undefined) | inactive: 2.76% | 
6 | Cc1ccc(NC(=O)CSc2cn(CC(=O)N3CCCCCC3)c3ccccc23)cc1 | inactive: 1.8% | 
7 | CCSc1ncc(Cl)c(C(=O)Nc2c(C(=O)c3ccc(C)c(F)c3)oc3ccccc23)n1 | inactive: -0.94% | 
8 | COc1ccccc1NC(=O)c1c(NC(=O)c2ccco2)sc2c1CCC(C(C)(C)C)C2 (centres undefined) | inactive: 4.12% | 
9 | CC(=O)c1cccc(NC(=O)c2c(N3CCCC3=O)c3cc(F)ccc3n2C)c1 | inactive: -19.1% | 
10 | CCOCCCNC(=O)C(c1ccc(C)cc1)N(Cc1cccs1)C(=O)c1ccc(NC(C)=O)cc1 (centres undefined) | inactive: -4.38% | 
11 | Cc1ccc2c(c1)N(CC(=O)NCc1ccccc1Br)C(=O)c1cccnc1O2 | inactive: 0.0734% | 
12 | CCCc1nc2ccccc2n2c(-c3ccc(C)cc3)c3c(=O)n(C)c(=O)n(C)c3c12 | inactive: 6.79% | 
13 | CC(C)c1ccc(NC(=O)c2cccc3c2C(=O)N(C2CCCCC2)C3)cc1 |  | inactive
14 | COC(=O)c1ccc(NC(=O)c2cc(=O)c3ccc(C)cc3o2)cc1 | inactive: -1.73% | 
15 | Cc1ccc(N2CC(NC(=O)c3ccc(S(=O)(=O)N4CCCCC4)cc3)CC2=O)cc1 (centres undefined) | inactive: -3.22% | 
16 | O=c1oc2ccc(Br)cc2cc1-c1csc(-c2ccccc2)n1 | inactive: -6.01% | 
17 | CCOC(=O)c1cc(NC(=O)c2ccc(C)cc2)c(=O)n2c1oc1ccc(Cl)cc12 |  | inactive
18 | Cc1ccc(NC(=O)Cn2c(=O)n(CCc3ccccc3)c(=O)c3c4c(sc32)CCCC4)c(C)c1 | inactive: 7.69% | 
19 | COc1ccc(N2CC(NC(=O)c3cc4ccccc4o3)CC2=O)cc1OC (centres undefined) | inactive: -14.5% | 
20 | CCc1cccc(NS(=O)(=O)c2c(C)nc3sc(CC)nn3c2=O)c1 | inactive: 9.99% | 
21 | COc1cc(/C=C(\C#N)C(=O)Nc2ccc(C)cc2)ccc1OCc1cc(=O)n2nc(C)sc2n1 | inactive: 19.1% | 
22 | C=C1C[C@@]2(O)O[C@@]3(C[C@H]2C(C)C)[C@H](C)CC[C@H]13 | inactive: 2.38% | 
23 | CN(C(=O)C1=CC(c2ccc3c(c2)OCO3)=NS(=O)(=O)N1C)c1ccccc1 | inactive: -5.15% | 
24 | Cn1nnc2c(NCc3ccccc3Cl)ncnc21 |  | inactive
25 | Cc1nc2c(c(C)nn2-c2ccccc2)c(C)c1CCC(=O)NCCc1ccccc1 | inactive: 0.175% | 

Row | Structure (SMILES) | activity change, negative = inhibition | outcome
26 | O=C(CSc1nc2c(c(=O)[nH]1)CN(Cc1ccc3c(c1)OCO3)CC2)Nc1cccc(Cl)c1 | inactive: -3.62% | 
27 | CCCC(=O)Nc1nnc2n1CCS2 | inactive: 36% | 
28 | Cc1cccc(Cn2cc3c(=O)n(CC(=O)Nc4ccc(C)c(F)c4)nc-3c3cc(F)ccc32)c1 | inactive: 6.88% | 
29 | COc1ccc(CC(=O)NCc2nc3cccnc3n2Cc2ccc(C)cc2)cc1OC | inactive: 20% | 
30 | CCOC(=O)c1noc2ncnc(N3CCC(C)CC3)c12 |  | inactive
31 | CCOc1ccc(Oc2nc(NC)nc(N3CCOCC3)n2)nn1 | inactive: -16.8% | 
32 | CC(C)c1cccc(C(C)C)c1NC1=NS(=O)(=O)c2ccccc21 | inactive: -1.64% | 
33 | COc1ccccc1NC(=O)NCCN1CCN(c2cccc(Cl)c2)CC1 | inactive: 6.15% | 
34 | Cc1cccc(N2CCN(C(=O)CCc3c(C)nc4ncnn4c3C)CC2)c1C |  | inactive
35 | CCc1ccccc1NC(=O)c1cc(S(=O)(=O)N2CCCC2)cn1C | inactive: 19.3% | 
36 | COc1ccc(OC)c(NC(=O)c2c(NCc3cccs3)sc3c2CCCC3)c1 | inactive: 13.6% | 
37 | Cc1ccc(Cn2c(=O)n(CCCC(=O)NCc3ccccc3Cl)c(=O)c3ccccc32)cc1 |  | inactive
38 | Cc1ccc(NC(=O)C2CCN(c3nc4ccccc4[nH]3)CC2)c(C)c1 | inactive: 7.18% | 
39 | COC(=O)c1cnc(N2CCN(c3ccccc3F)CC2)c2ccccc12 |  | inactive
40 | O=C(c1ccc(CSc2nc3ccncc3n2Cc2cccc(F)c2)cc1)N1CCCCCC1 | inactive: -3.11% | 
41 | CCOc1ccccc1NC(=O)c1cc2c(=O)oc3ccccc3c2s1 | inactive: -7.63% | 
42 | O=C(Cn1c(-c2cccs2)cc2ccccc21)NCCc1ccc(Cl)cc1 | inactive: -3.49% | 
43 | Cc1cccc(C)c1-n1ncc(C(=O)N2CCN(c3ccccc3)CC2)c1C1CCN(C(=O)OC(C)(C)C)CC1 | inactive: -4.37% | 
44 | COC(=O)C(C)Sc1ncnc2c1c(-c1ccccc1)cn2-c1ccc(F)cc1 (centres undefined) | inactive: -12.4% | 
45 | CCOc1ccc(S(=O)(=O)Nc2ccc3c(c2)N(C(C)=O)CCC3)cc1 | inactive: 12.7% | 
46 | COc1ccc(OC)c(NC(=O)CN2C(=O)COc3ccc(S(=O)(=O)NC4CCCC4)cc32)c1 | inactive: -1.43% | 
47 | Cc1ccc(CNS(=O)(=O)c2cc3c(cc2C)NC(=O)CO3)cc1 | inactive: 4.47% | 
48 | CN(CC(=O)Nc1cccc(C(F)(F)F)c1)S(=O)(=O)c1cccs1 |  | inactive
49 | Cc1ccc(OCc2nc3ccccc3n2CCOc2ccc(Cl)cc2)cc1 | inactive: -12.1% | 
